{"source": "paper PMC12443466", "about": "“Allosteric modulation of protein kinase A in individuals affected by NLPD‐PKA, a neurodegenerative disease in which the PRKAR1B L50R variant is expressed” (The Febs Journal, 2025)", "target": "the molecule itself", "test": "SEC; HiLoad 16/600 Superdex 200 pg; 50 mM Tris, 200 mM NaCl, pH 7.5; refolded D/D domain, peak at ~90 mL collected and re-injected"}
{"protein": "Dimerization/Docking (D/D) domain of wildtype PKA-RIβ (domain or fragment, D/D domain of PKA regulatory subunit RIβ (PRKAR1B); PDB 4F9K is the cited structure of the RIβ D/D domain; also called native RIβ D/D domain; wildtype D/D domain) not shown", "values": [{"measurement": "stoichiometry N", "value": 2}]}
